Assay results: patent publication US20240382412A1, “BIOORTHOGONAL CATALYTIC PATCH AND METHODS OF USING THE SAME” (THE REGENTS THE UNIVERSITY OF CALIFORNIA, priority 2020, published 2024)
Where two headings read alike, the source gives them in different places.

What was measured:
B16F10 cells [1] = assay: cell viability assay, B16F10 cells; format: cell-based, mouse
Description: Next, a cell viability assay using B16F10 cells was carried out to study the toxicity profiles of alloc-DOX, DOX and alloc-DOX/PT-MNs 10 combination at different concentrations from 5 nM to 0.2 μmM.

B16F10 cells [2] = assay: Annexin V-APC / SYTOX Green flow cytometry of apoptosis; format: cell-based, mouse
B16F10 cells [3] = assay: TUNEL assay in cell culture; format: cell-based, mouse
B16F10 tumor = assay: B16F10 mouse melanoma model, antitumor study; format: in vivo, mice; conditions: for tumor growth: once every 3 days, 100 mg/kg alloc-DOX, 5 μmg/kg DOX i.p.
Description: Next, B16F10 tumor-bearing mice were randomly divided into five groups and treated with alloc-DOX/PT-MNs 10 combination, DOX, alloc-DOX, PT-MNs 10 (without prodrug) and PBS, respectively, once every 3 days. DOX, alloc-DOX and PBS were administered by i.p. injection. Before starting injection of prodrugs, PT-MNs 10 were inserted into the tumor site from the surface skin and fixed there for one (1) hour to allow the needles 14 to swell thoroughly. Bioluminescence imaging and tumor volumes were recorded to visualize tumor growth and evaluate the therapy efficiency (FIG. 6A).

[4] = in vivo toxicity by body weight change after i.p. injection; parameters: species or system mice
Excerpt: In vivo prodrug activation by PT-MNs for cancer therapy. To evaluate the in vivo tumor inhibition performance by the bioorthogonal PT-MNs/alloc-DOX combination, an anticancer study was undertaken using a B16F10 μmouse melanoma model. First, the ability of PT-MNs 10 to penetrate skin tissue 100 was evidenced by pressing the patch 10 with a gentle force against the skin 100 over the melanoma tumor (FIGS. 36A-36C). It could be seen that the needle 14 matrix swelled into three-dimensional porous networks after removing from mice (FIGS. 37A-37B), such changes in structure could help to alleviate mass transport barriers during the bioorthogonal catalysis. Meanwhile, to decide which the dose of alloc-DOX could be given for treatment, the in vivo toxicity of alloc-DOX was determined by measuring the weight changes of mice and compared with those of mice treated with DOX (FIGS. 38A-38B).

[5] = drug/prodrug concentrations in tissues versus time; format: in vivo, mice; conditions: all tissues after i.p. injection
Description: To gain further insights into these treatment results, the concentrations of drug/prodrug in various tissues, including tumor, plasma, and other major organs, versus time after different treatments were analyzed. […] In comparison with the group treated with DOX, there was more alloc-DOX than DOX in all tissues, which was due to that the dose of prodrug was allowed to be given higher. […] This might be attributed to the three-dimensional configuration of PT-MNs 10 that facilitated the uniform diffusion of the generated DOX within tumors and thereby promote their uptake by cancer cells. The small amount of DOX measured in some tissues might originate from the DOX generated by the part of microneedles 14 that stride between the tumor area and the skin. Collectively, it can be concluded that the accumulation of alloc-DOX inside tumors and its locoregional activation by the bioorthogonal catalytic patch 10 restored the drug's pharmacological property to combat tumors from within while minimizing side toxicity towards distant organs and tissues.

Compound	IC50 (B16F10 cells [1]; Mus musculus, B16-F10) [µM]	proportion of cell population Annexin V-APC positive (B16F10 cells [2]; 12 h) [%]	apoptotic DNA fragmentation (TUNEL) (B16F10 cells [3])	tumor growth (B16F10 tumor)	TUNEL assay in tumor tissue (B16F10 tumor; tumor sections)	time of death ([4]; 10 μmg/kg i.p. every 3 days)	IC50 (B16F10 cells [1]) [µM]	times less toxic than DOX (B16F10 cells [1]; from IC50) [times]	apoptotic cell death (B16F10 cells [2]; flow cytometry)	DOX detected in tissues [5]	weight loss ([4]; i.p. up to 150 μmg/kg every three days) [%]
COc1cccc2c1C(=O)c1c(O)c3c(c(O)c1C2=O)C[C@@](O)(C(=O)CO)C[C@@H]3O[C@H]1C[C@H](N)[C@H](O)[C@H](C)O1 [DOX, Doxorubicin]	0.08	64.2	extensive apoptotic DNA fragmentation	Moderate inhibitory outcome	apoptotic signals	fourteenth day					
C=CCOC(=O)N[C@H]1C[C@H](O[C@H]2C[C@](O)(C(=O)CO)Cc3c(O)c4c(c(O)c32)C(=O)c2c(OC)cccc2C4=O)O[C@@H](C)[C@H]1O [alloc-DOX, N-(allyloxycarbonyl) doxorubicin]				no delayed tumor growth			9.29	~120	no significant apoptotic cell death	no DOX was detected	~7.7
